Assay results from the supplement of paper PMC4967469.
By IC50 is meant the dose at which the fit gives 50% viability; a fit beyond the top or the lowest dose is shown as a bound at that dose. The AUC spans the tested range (256-fold, ending at the top dose) of the same fit; the more sensitive the line, the further below 1. For some of these results: The top dose, if marked as inferred, is not printed in the source and was worked back from the curve model.

Columns and labels:
Experiment in all cases: Viability of human cancer cell lines after 72 h of drug (GDSC screen)
[1] = compound: CC1(C)CCC(c2ccc(Cl)cc2)=C(CN2CCN(c3ccc(C(=O)NS(=O)(=O)c4ccc(N[C@H](CCN5CCOCC5)CSc5ccccc5)c(S(=O)(=O)C(F)(F)F)c4)cc3)CC2)C1 [ABT-263]; conditions: top dose 2 µM; top dose inferred
Description: (§1)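 Human cancer cell lines in 384-well plates, medium with 10% serum, drug for 72 h over a 256-fold dose range (nine 2-fold or five 4-fold steps up to the top dose). Adherent lines were fixed and stained with the nucleic acid dye Syto60, suspension lines read with resazurin; signal relative to control wells, capped at 0 and 100%. One two-parameter sigmoid per drug and line, fitted in a mixed model over all curves with the slope shared within a line.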

[2] = compound: COc1cc(/C=C/C(=O)N2CCC=CC2=O)cc(OC)c1OC [piperlongumine]; conditions: top dose 10 µM
Description: as §1

[3] = compound: CC(=O)Nc1nc(C)c(-c2ccc(Cl)c(S(=O)(=O)NCCO)c2)s1 [PIK-93]; conditions: top dose 20 µM
Description: as §1

[4] = compound: Cn1cc(/C=C2\C(=O)Nc3cccnc32)c2ccccc21 [GW 441756]; conditions: top dose 2 µM; top dose inferred
Description: as §1

| Cell Line | AUC [1] | IC50 [1] [nM] | AUC [2] | IC50 [2] [nM] | AUC [3] | IC50 [3] [nM] | AUC [4] | IC50 [4] [nM] |
| --- | --- | --- | --- | --- | --- | --- | --- | --- |
| 22RV1 (prostate, adherent) | 0.976 | > 2000 | 0.782 | 5260 | 0.504 | 1280 | 0.894 | > 2000 |
| 42-MG-BA (glioma, adherent) | 0.963 | > 2000 | 0.746 | 3360 | 0.824 | 13000 | 0.985 | > 2000 |
| 451Lu (melanoma, adherent) | 0.913 | > 2000 | 0.805 | 4810 | 0.898 | > 20000 | 0.974 | > 2000 |
| 639-V (bladder, adherent) | 0.968 | > 2000 | 0.806 | 4190 | 0.952 | > 20000 | 0.901 | 1900 |
| 647-V (bladder, adherent) | 0.979 | > 2000 | 0.754 | 3380 | 0.934 | > 20000 | 0.982 | > 2000 |
| 5637 (bladder, adherent) | 0.921 | > 2000 | 0.834 | 5660 | 0.783 | 7590 | 0.988 | > 2000 |
| 8305C (thyroid, adherent) | 0.964 | > 2000 | 0.772 | 5100 | 0.847 | > 20000 | 0.98 | > 2000 |
| 8505C (thyroid, adherent) | 0.899 | > 2000 | 0.729 | 2940 | 0.783 | 8980 | 0.966 | > 2000 |
| 23132-87 (stomach, adherent) | 0.971 | > 2000 | 0.801 | 5100 | 0.764 | 7540 | 0.933 | > 2000 |
| A375 (melanoma, adherent) | 0.974 | > 2000 | 0.593 | 1070 | 0.814 | 8550 | 0.962 | > 2000 |
| A427 (non-small cell lung carcinoma, adherent) | 0.814 | 1110 | 0.834 | 6600 | 0.91 | > 20000 | 0.97 | > 2000 |
| A431 (skin, adherent) | 0.954 | > 2000 | 0.778 | 3870 | 0.757 | 6610 | 0.987 | > 2000 |
| A2780 (ovary, semi-adherent) | 0.964 | > 2000 | 0.867 | 9520 | 0.639 | 3070 | 0.98 | > 2000 |
| AGS (stomach, adherent) | 0.456 | 96 | – | – | 0.884 | 17800 | 0.955 | > 2000 |
| AU565 (breast, adherent) | 0.944 | > 2000 | 0.782 | 4700 | 0.753 | 7380 | 0.72 | 570 |
| AsPC-1 (pancreas, adherent) | 0.906 | > 2000 | 0.777 | 7550 | 0.836 | > 20000 | 0.958 | > 2000 |
| BFTC-905 (bladder, adherent) | 0.979 | > 2000 | 0.81 | 4390 | 0.905 | > 20000 | 0.963 | > 2000 |
| BHT-101 (thyroid, adherent) | 0.86 | 1770 | 0.736 | 3030 | 0.691 | 4390 | 0.79 | 918 |
| BICR10 (head and neck, adherent) | 0.753 | 761 | 0.844 | 8840 | 0.953 | > 20000 | 0.931 | > 2000 |
| BICR22 (head and neck, adherent) | 0.772 | 893 | 0.797 | 5520 | 0.969 | > 20000 | 0.939 | > 2000 |
| BICR78 (head and neck, adherent) | 0.928 | > 2000 | 0.752 | 3790 | 0.859 | > 20000 | 0.784 | 991 |
| BT-20 (breast, adherent) | 0.878 | > 2000 | 0.73 | 3360 | 0.836 | 18100 | 0.98 | > 2000 |
| BT-483 (breast, adherent) | 0.916 | > 2000 | 0.888 | > 10000 | 0.838 | > 20000 | 0.976 | > 2000 |
| BxPC-3 (pancreas, adherent) | 0.972 | > 2000 | 0.715 | 2750 | 0.692 | 4640 | 0.982 | > 2000 |
| C3A (liver, adherent) | 0.988 | > 2000 | 0.846 | 7760 | 0.987 | > 20000 | 0.987 | > 2000 |
| C32 (melanoma, adherent) | 0.881 | > 2000 | 0.754 | 3580 | 0.986 | > 20000 | 0.824 | 1300 |

| Cell Line | AUC [1] | IC50 [1] [nM] | AUC [2] | IC50 [2] [nM] | AUC [3] | IC50 [3] [nM] | AUC [4] | IC50 [4] [nM] |
| --- | --- | --- | --- | --- | --- | --- | --- | --- |
| C-4-I (cervix, adherent) | 0.944 | > 2000 | 0.644 | 1620 | 0.958 | > 20000 | 0.897 | > 2000 |
| C-33-A (cervix, adherent) | 0.981 | > 2000 | 0.617 | 1310 | 0.716 | 5120 | 0.962 | > 2000 |
| CADO-ES1 (Ewing sarcoma, suspension) | 0.922 | > 2000 | 0.84 | 7060 | 0.582 | 2110 | 0.988 | > 2000 |
| CAL-12T (non-small cell lung carcinoma, adherent) | 0.966 | > 2000 | 0.76 | 3900 | 0.781 | 9320 | 0.967 | > 2000 |
| CAL-27 (head and neck, adherent) | 0.96 | > 2000 | 0.713 | 2530 | 0.881 | > 20000 | 0.972 | > 2000 |
| CAL-29 (bladder, adherent) | 0.901 | > 2000 | 0.586 | 1100 | 0.685 | 4290 | 0.984 | > 2000 |
| CAL-33 (head and neck, adherent) | 0.865 | 1770 | 0.787 | 4340 | 0.669 | 3700 | 0.866 | 1780 |
| CAL-39 (cervix, adherent) | 0.975 | > 2000 | 0.806 | 5310 | 0.87 | 19800 | 0.98 | > 2000 |
| CAL-51 (breast, adherent) | 0.99 | > 2000 | 0.576 | 981 | 0.989 | > 20000 | 0.991 | > 2000 |
| CAL-62 (thyroid, adherent) | 0.983 | > 2000 | 0.628 | 1380 | 0.874 | 17900 | 0.977 | > 2000 |
| CAL-72 (osteosarcoma, adherent) | 0.916 | > 2000 | 0.681 | 2200 | 0.984 | > 20000 | 0.957 | > 2000 |
| CAL-78 (chondrosarcoma, adherent) | 0.937 | > 2000 | 0.802 | 5760 | 0.814 | 13000 | 0.842 | 1710 |
| CAL-85-1 (breast, adherent) | 0.97 | > 2000 | 0.807 | 6980 | 0.846 | > 20000 | 0.978 | > 2000 |
| CAL-120 (breast, adherent) | 0.796 | 1260 | 0.688 | 2480 | 0.723 | 6550 | 0.978 | > 2000 |
| CAPAN-1 (pancreas, adherent) | 0.871 | > 2000 | 0.951 | > 10000 | 0.941 | > 20000 | 0.86 | 1980 |
| CCF-STTG1 (glioma, adherent) | 0.972 | > 2000 | 0.855 | 8090 | 0.896 | > 20000 | 0.922 | > 2000 |
| KYSE-140 (oesophagus, adherent) | 0.937 | > 2000 | – | – | 0.817 | 13100 | 0.826 | 1440 |
| MIA-PaCa-2 (pancreas, adherent) | 0.913 | > 2000 | – | – | 0.981 | > 20000 | 0.913 | > 2000 |
| MKN28 (stomach, adherent) | 0.945 | > 2000 | – | – | 0.913 | > 20000 | 0.969 | > 2000 |
| NCI-H647 (non-small cell lung carcinoma, adherent) | 0.948 | > 2000 | – | – | 0.753 | 6950 | 0.985 | > 2000 |
| NCI-H2052 (mesothelioma, adherent) | 0.822 | 1630 | – | – | 0.944 | > 20000 | 0.983 | > 2000 |
| NCI-H3122 (lung adenocarcinoma, adherent) | 0.976 | > 2000 | – | – | 0.854 | 16500 | 0.978 | > 2000 |
| OCUM-1 (stomach, adherent) | 0.575 | 206 | – | – | 0.982 | > 20000 | 0.932 | > 2000 |
| PA-1 (ovary, adherent) | 0.929 | > 2000 | – | – | 0.611 | 2350 | 0.993 | > 2000 |
| SAT (head and neck, adherent) | 0.855 | > 2000 | – | – | 0.831 | > 20000 | 0.796 | 1600 |
